Test results published in publication PMC8529494.
No constants are given. Whether binding was seen depends on the method and setting. In cells and extracts the contact can be indirect. Some entries that bind do so weakly or less than the wild type. For some of these results: Tags and fused reporters may be left off the sequences shown.

Amino acid sequences for entries named in this document (tags omitted). A change or cut given only in a name is not applied to a line headed by its entry. Chains listed by the source or under a name are the forms on record and can include a tag or linker.
UniProt P84022: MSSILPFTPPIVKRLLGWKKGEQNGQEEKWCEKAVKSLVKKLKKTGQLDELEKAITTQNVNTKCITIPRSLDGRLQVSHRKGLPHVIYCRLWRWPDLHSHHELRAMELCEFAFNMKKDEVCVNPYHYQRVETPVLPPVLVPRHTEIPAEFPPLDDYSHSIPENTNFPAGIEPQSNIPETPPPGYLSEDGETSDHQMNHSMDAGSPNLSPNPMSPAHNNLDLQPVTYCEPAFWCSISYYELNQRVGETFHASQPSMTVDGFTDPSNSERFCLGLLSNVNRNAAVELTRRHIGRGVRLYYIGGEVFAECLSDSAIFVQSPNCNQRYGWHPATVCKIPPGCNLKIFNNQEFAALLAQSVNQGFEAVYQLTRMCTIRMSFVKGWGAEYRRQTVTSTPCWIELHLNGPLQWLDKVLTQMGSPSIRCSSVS
HA-tagged SMAD3 K20/117R (2KR), overexpressed in MDA-MB-231 and BT-549 cells (P84022, form named): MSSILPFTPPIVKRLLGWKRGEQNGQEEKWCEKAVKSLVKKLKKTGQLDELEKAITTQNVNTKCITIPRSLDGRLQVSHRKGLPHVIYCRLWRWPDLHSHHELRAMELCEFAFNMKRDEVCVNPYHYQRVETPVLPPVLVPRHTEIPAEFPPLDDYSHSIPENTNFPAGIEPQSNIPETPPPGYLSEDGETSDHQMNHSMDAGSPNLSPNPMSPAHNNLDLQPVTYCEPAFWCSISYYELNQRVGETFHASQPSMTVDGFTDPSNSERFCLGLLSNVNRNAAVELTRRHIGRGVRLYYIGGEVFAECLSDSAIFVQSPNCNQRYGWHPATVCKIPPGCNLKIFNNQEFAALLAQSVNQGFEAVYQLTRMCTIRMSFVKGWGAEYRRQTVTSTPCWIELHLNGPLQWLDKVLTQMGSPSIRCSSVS

What was measured:
[1] = target: SMAD3 K20/117R, acetylation-deficient mutant, in HEK293T cells (UniProt P84022); assay: co-IP; IP and western blot of HEK293T cells (Figure 4C stimulated by TGF-β1; Figure 4D SMAD3 WT, 2KQ or 2KR)
[2] = target: SMAD3 wild type, exogenous, in HEK293T cells (UniProt P84022); assay: as above
[3] = target: SMAD3, endogenous (human (endogenous in MDA-MB-231 and BT-549)) (UniProt P84022); assay: co-IP; IP and western blot of MDA-MB-231 and BT-549 cells (Figure 4A with TGF-β1 and TRIM24 overexpression; Figure 4E with SMAD3 WT, 2KQ or 2KR; Figure 4F MDA-MB-231/tetO-shKAT6A with or without Dox; Figure 4G MDA-MB-231)
[4] = target: HA-tagged SMAD3 WT, overexpressed in MDA-MB-231 and BT-549 cells (UniProt P84022); assay: as above
[5] = target: HA-tagged SMAD3 K20/117R (2KR), overexpressed in MDA-MB-231 and BT-549 cells (UniProt P84022); assay: as above

binding [1] | binding [2] | binding [3] | binding [4] | binding [5] | Binder
binds | binds |  |  |  | TRIM33 in HEK293T cells (protein, UniProt Q9UPN9 1-1127) MAENKGGGEAESGGGGSGSAPVTAGAAGPAAQEAEPPLTAVLVEEEEEEGGRAGAEGGAAGPDDGGVAAASSGSAQAASSPAASVGTGVAGGAVSTPAPAPASAPAPGPSAGPPPGPPASLLDTCAVCQQSLQSRREAEPKLLPCLHSFCLRCLPEPERQLSVPIPGGSNGDIQQVGVIRCPVCRQECRQIDLVDNYFVKDTSEAPSSSDEKSEQVCTSCEDNASAVGFCVECGEWLCKTCIEAHQRVKFTKDHLIRKKEDVSESVGASGQRPVFCPVHKQEQLKLFCETCDRLTCRDCQLLEHKEHRYQFLEEAFQNQKGAIENLLAKLLEKKNYVHFAATQVQNRIKEVNETNKRVEQEIKVAIFTLINEINKKGKSLLQQLENVTKERQMKLLQQQNDITGLSRQVKHVMNFTNWAIASGSSTALLYSKRLITFQLRHILKARCDPVPAANGAIRFHCDPTFWAKNVVNLGNLVIESKPAPGYTPNVVVGQVPPGTNHISKTPGQINLAQLRLQHMQQQVYAQKHQQLQQMRMQQPPAPVPTTTTTTQQHPRQAAPQMLQQQPPRLISVQTMQRGNMNCGAFQAHQMRLAQNAARIPGIPRHSGPQYSMMQPHLQRQHSNPGHAGPFPVVSVHNTTINPTSPTTATMANANRGPTSPSVTAIELIPSVTNPENLPSLPDIPPIQLEDAGSSSLDNLLSRYISGSHLPPQPTSTMNPSPGPSALSPGSSGLSNSHTPVRPPSTSSTGSRGSCGSSGRTAEKTSLSFKSDQVKVKQEPGTEDEICSFSGGVKQEKTEDGRRSACMLSSPESSLTPPLSTNLHLESELDALASLENHVKIEPADMNESCKQSGLSSLVNGKSPIRSLMHRSARIGGDGNNKDDDPNEDWCAVCQNGGDLLCCEKCPKVFHLTCHVPTLLSFPSGDWICTFCRDIGKPEVEYDCDNLQHSKKGKTAQGLSPVDQRKCERLLLYLYCHELSIEFQEPVPASIPNYYKIIKKPMDLSTVKKKLQKKHSQHYQIPDDFVADVRLIFKNCERFNEMMKVVQVYADTQEINLKADSEVAQAGKAVALYFEDKLTEIYSDRTFAPLPEFEQEEDDGEVTEDSDEDFIQPRRKRLKSDERPVHIK
 |  | binds | binds | binds | TRIM33 in MDA-MB-231 and BT-549 cells (protein, UniProt Q9UPN9 1-1127) MAENKGGGEAESGGGGSGSAPVTAGAAGPAAQEAEPPLTAVLVEEEEEEGGRAGAEGGAAGPDDGGVAAASSGSAQAASSPAASVGTGVAGGAVSTPAPAPASAPAPGPSAGPPPGPPASLLDTCAVCQQSLQSRREAEPKLLPCLHSFCLRCLPEPERQLSVPIPGGSNGDIQQVGVIRCPVCRQECRQIDLVDNYFVKDTSEAPSSSDEKSEQVCTSCEDNASAVGFCVECGEWLCKTCIEAHQRVKFTKDHLIRKKEDVSESVGASGQRPVFCPVHKQEQLKLFCETCDRLTCRDCQLLEHKEHRYQFLEEAFQNQKGAIENLLAKLLEKKNYVHFAATQVQNRIKEVNETNKRVEQEIKVAIFTLINEINKKGKSLLQQLENVTKERQMKLLQQQNDITGLSRQVKHVMNFTNWAIASGSSTALLYSKRLITFQLRHILKARCDPVPAANGAIRFHCDPTFWAKNVVNLGNLVIESKPAPGYTPNVVVGQVPPGTNHISKTPGQINLAQLRLQHMQQQVYAQKHQQLQQMRMQQPPAPVPTTTTTTQQHPRQAAPQMLQQQPPRLISVQTMQRGNMNCGAFQAHQMRLAQNAARIPGIPRHSGPQYSMMQPHLQRQHSNPGHAGPFPVVSVHNTTINPTSPTTATMANANRGPTSPSVTAIELIPSVTNPENLPSLPDIPPIQLEDAGSSSLDNLLSRYISGSHLPPQPTSTMNPSPGPSALSPGSSGLSNSHTPVRPPSTSSTGSRGSCGSSGRTAEKTSLSFKSDQVKVKQEPGTEDEICSFSGGVKQEKTEDGRRSACMLSSPESSLTPPLSTNLHLESELDALASLENHVKIEPADMNESCKQSGLSSLVNGKSPIRSLMHRSARIGGDGNNKDDDPNEDWCAVCQNGGDLLCCEKCPKVFHLTCHVPTLLSFPSGDWICTFCRDIGKPEVEYDCDNLQHSKKGKTAQGLSPVDQRKCERLLLYLYCHELSIEFQEPVPASIPNYYKIIKKPMDLSTVKKKLQKKHSQHYQIPDDFVADVRLIFKNCERFNEMMKVVQVYADTQEINLKADSEVAQAGKAVALYFEDKLTEIYSDRTFAPLPEFEQEEDDGEVTEDSDEDFIQPRRKRLKSDERPVHIK
 |  | binds |  |  | Flag-TRIM24 WT, exogenous, in MDA-MB-231 and BT-549 cells (protein, UniProt O15164 1-1050) MEVAVEKAVAAAAAASAAASGGPSAAPSGENEAESRQGPDSERGGEAARLNLLDTCAVCHQNIQSRAPKLLPCLHSFCQRCLPAPQRYLMLPAPMLGSAETPPPVPAPGSPVSGSSPFATQVGVIRCPVCSQECAERHIIDNFFVKDTTEVPSSTVEKSNQVCTSCEDNAEANGFCVECVEWLCKTCIRAHQRVKFTKDHTVRQKEEVSPEAVGVTSQRPVFCPFHKKEQLKLYCETCDKLTCRDCQLLEHKEHRYQFIEEAFQNQKVIIDTLITKLMEKTKYIKFTGNQIQNRIIEVNQNQKQVEQDIKVAIFTLMVEINKKGKALLHQLESLAKDHRMKLMQQQQEVAGLSKQLEHVMHFSKWAVSSGSSTALLYSKRLITYRLRHLLRARCDASPVTNNTIQFHCDPSFWAQNIINLGSLVIEDKESQPQMPKQNPVVEQNSQPPSGLSSNQLSKFPTQISLAQLRLQHMQQQVMAQRQQVQRRPAPVGLPNPRMQGPIQQPSISHQQPPPRLINFQNHSPKPNGPVLPPHPQQLRYPPNQNIPRQAIKPNPLQMAFLAQQAIKQWQISSGQGTPSTTNSTSSTPSSPTITSAAGYDGKAFGSPMIDLSSPVGGSYNLPSLPDIDCSSTIMLDNIVRKDTNIDHGQPRPPSNRTVQSPNSSVPSPGLAGPVTMTSVHPPIRSPSASSVGSRGSSGSSSKPAGADSTHKVPVVMLEPIRIKQENSGPPENYDFPVVIVKQESDEESRPQNANYPRSILTSLLLNSSQSSTSEETVLRSDAPDSTGDQPGLHQDNSSNGKSEWLDPSQKSPLHVGETRKEDDPNEDWCAVCQNGGELLCCEKCPKVFHLSCHVPTLTNFPSGEWICTFCRDLSKPEVEYDCDAPSHNSEKKKTEGLVKLTPIDKRKCERLLLFLYCHEMSLAFQDPVPLTVPDYYKIIKNPMDLSTIKKRLQEDYSMYSKPEDFVADFRLIFQNCAEFNEPDSEVANAGIKLENYFEELLKNLYPEKRFPKPEFRNESEDNKFSDDSDDDFVQPRKKRLKSIEERQLLK
 |  | binds |  |  | Flag-TRIM24 F979A/N980A mutant (protein, UniProt O15164 1-1050) MEVAVEKAVAAAAAASAAASGGPSAAPSGENEAESRQGPDSERGGEAARLNLLDTCAVCHQNIQSRAPKLLPCLHSFCQRCLPAPQRYLMLPAPMLGSAETPPPVPAPGSPVSGSSPFATQVGVIRCPVCSQECAERHIIDNFFVKDTTEVPSSTVEKSNQVCTSCEDNAEANGFCVECVEWLCKTCIRAHQRVKFTKDHTVRQKEEVSPEAVGVTSQRPVFCPFHKKEQLKLYCETCDKLTCRDCQLLEHKEHRYQFIEEAFQNQKVIIDTLITKLMEKTKYIKFTGNQIQNRIIEVNQNQKQVEQDIKVAIFTLMVEINKKGKALLHQLESLAKDHRMKLMQQQQEVAGLSKQLEHVMHFSKWAVSSGSSTALLYSKRLITYRLRHLLRARCDASPVTNNTIQFHCDPSFWAQNIINLGSLVIEDKESQPQMPKQNPVVEQNSQPPSGLSSNQLSKFPTQISLAQLRLQHMQQQVMAQRQQVQRRPAPVGLPNPRMQGPIQQPSISHQQPPPRLINFQNHSPKPNGPVLPPHPQQLRYPPNQNIPRQAIKPNPLQMAFLAQQAIKQWQISSGQGTPSTTNSTSSTPSSPTITSAAGYDGKAFGSPMIDLSSPVGGSYNLPSLPDIDCSSTIMLDNIVRKDTNIDHGQPRPPSNRTVQSPNSSVPSPGLAGPVTMTSVHPPIRSPSASSVGSRGSSGSSSKPAGADSTHKVPVVMLEPIRIKQENSGPPENYDFPVVIVKQESDEESRPQNANYPRSILTSLLLNSSQSSTSEETVLRSDAPDSTGDQPGLHQDNSSNGKSEWLDPSQKSPLHVGETRKEDDPNEDWCAVCQNGGELLCCEKCPKVFHLSCHVPTLTNFPSGEWICTFCRDLSKPEVEYDCDAPSHNSEKKKTEGLVKLTPIDKRKCERLLLFLYCHEMSLAFQDPVPLTVPDYYKIIKNPMDLSTIKKRLQEDYSMYSKPEDFVADFRLIFQNCAEAAEPDSEVANAGIKLENYFEELLKNLYPEKRFPKPEFRNESEDNKFSDDSDDDFVQPRKKRLKSIEERQLLK
